# Measurements from ChEMBL document CHEMBL4888484, “Replenishing the malaria drug discovery pipeline: Screening and hit evaluation of the MMV Hit Generation Library 1 (HGL1) against asexual blood stage Plasmodium falciparum ,using a nano luciferase reporter read-out” (2022).
# The campaign covered roughly 150,000 compounds. About 540 (0.36%) showed an effect of 50% or more. This is one part of the list.
# Test system: Plasmodium falciparum
# Test: Primary screen in NF54 nanoGlo assay, in single point, at 2uM, 72h; a lower Z score goes with more inhibition
# Assay type: functional, Erythrocyte
# Settings: timepoint 72 hour
SMILES,% Inhibition,Z score
COc1cc(Br)cc(C)c1NC(=O)NCCO,6%,-0.88
COc1cncc(C(=O)N(c2cccc(C(F)(F)F)c2)C(C)C)n1,11%,-1.67
CCC[C@]1(COC)CCCN1C(=O)c1cnc(Cc2ccccc2)s1,1%,-0.13
CCn1nc(C)c2c(-c3ccccc3)cc(O[C@@H](C)C(=O)NCc3ccco3)nc21,-7%,0.8
C[C@H]1CCc2ccccc2N1CC(=O)N1CCc2ccccc21,-11%,1.53
CC1CCC(Oc2cc(CNC(=O)C3CC=CC3)ccn2)CC1 (centres undefined),-7%,1.44
OC[C@@H]1C[C@H](O)CN1Cc1nc2c(F)cccc2[nH]1,-11%,1.4
CC(C)C[C@H](NC(=O)c1n[nH]c2c1CCCC2)c1nnc2ccccn12,0%,-0.01
O=C1C[C@]2(CCN(C/C=C/c3ccc(F)cc3)C2)C(=O)N1,-8%,1.19
Cc1ncoc1C(=O)N1CCO[C@H](C(C)(C)C)CC1,-8%,1.45
Cc1cccc(-c2cc(NC(=O)COc3ccc(Cl)cc3)n(-c3ccccc3)n2)c1,-7%,1.03
CN1CCC[C@H](NC(=O)Nc2nnc(C3CCOCC3)s2)C1=O,4%,-0.83
CC(C)c1nccc(C[C@@H]2[C@@H](CO)[C@H](O)C[C@H]2NCc2ccc(F)cc2)n1,28%,-3.16
O=C1CN(C(=O)CN2CCCCCC2)CCN1CCc1ccccc1,-4%,0.93
Cc1cc2c(cc1S(=O)(=O)N(C)CC(=O)Nc1ccc(Cl)cn1)OCC(=O)N2,-9%,0.85
O=C(NC[C@H]1CC2c3ccccc3C1c1ccccc12)c1cnsn1,16%,-2.28
CCC(CC)c1cc(NC(=O)c2cc(C)no2)[nH]n1,31%,-3.53
CCCn1cc(S(=O)(=O)NCc2ccc(C)cc2)c2cccnc21,-5%,0.93
C[C@@H]1Oc2ccc(NC(=O)Cn3cccn3)cc2NC1=O,8%,-0.91
Cc1ccc(C(=O)N2CCCC[C@H]2c2nc(-c3ccncc3)no2)s1,-21%,2.2
CCCCNC(=O)c1ccc2c(c1)nc(C1CCN(S(=O)(=O)c3ccc(C)cc3)CC1)n2C1CCCCC1,10%,-1.56

SMILES,% Inhibition,Z score
N#C[C@H]1CCCN(C(=O)c2cccc(-c3ccncc3F)c2)C1,-17%,1.81
COc1cccc(C(=O)O[C@@H](C)C(=O)Nc2cc(C)no2)c1O,-4%,0.53
COC1C2CC3CN(S(=O)(=O)C4CCOC4C)C1C3C2 (centres undefined),-13%,1.15
O=C1C2C3c4ccccc4C(c4ccccc43)[C@@H]2C(=O)N1Cc1ccc(F)cc1 (some centres undefined),-8%,1
O=C(NCCOCC1CC1)N1CC2CC=CCC2C1 (centres undefined),-13%,1.92
Fc1ccccc1CN1CCC(COCc2ccccc2)CC1,-15%,1.67
CCn1ccnc1CNCCCNc1ncccn1,-6%,0.63
CCc1ccccc1C(=O)OCc1nccn1C,-3%,0.26
CN(C)C(=O)CCc1nc(COc2ccc(C(C)(C)C)cc2)n[nH]1,2%,-0.3
CNc1ccccc1CN[C@H]1CCO[C@@H]1c1ccnn1-c1ccccc1,7%,-1.29
Cc1cc(C(=O)Nc2cccc3ccccc23)cc2c1N(C)S(=O)(=O)c1ccccc1-2,9%,-1.08
CCN1Cc2nc(OC)c(CNC(=O)c3cccc(-c4nc[nH]n4)c3)cc2C1=O,-6%,1.09
CN1Cc2c(NC(=O)N3CCCC34CCC4)cccc2C1=O,1%,-0.23
CCC1CCCCN1CN1C(=O)C2CC=CCC2C1=O (centres undefined),1%,-0.09
CCN1C(=O)COc2ccc(-c3noc([C@H]4CC(=O)N(c5ccc(OC)cc5)C4)n3)cc21,-10%,1.13
CC(C)(C)c1nnc2n1CCN(C(=O)N[C@H]1CCCCC1(C)C)C2,-2%,0.15
Cc1nn(-c2nc3ccccc3s2)c2nc(-c3cccnc3)cc(C(F)(F)F)c12,2%,-0.24
CCCS(=O)(=O)NC(=O)Cc1ccccc1F,3%,-0.54
COc1ccc([C@H]2C[C@@H](O)[C@@H](O)[C@@H]2NC(=O)c2ccc(C(F)(F)F)cc2)cc1,15%,-1.78
O=C1NCCN(C(=O)NC2(C3CCCCC3)CC2)[C@H]1c1ccc(F)cc1,-3%,0.71
Cc1ccc(N2CCCN(Cc3ccc(OC(F)(F)F)cc3)C2=O)c(NC(=O)c2ccc(Cl)cc2)c1,-12%,1.77
